Reference: ChEMBL document CHEMBL5606458, “ASAP - ZIKV NS2B-NS3 protease fluorescence single point” (2024)
Out of some 2,700 compounds screened, about 160 (5.9%) showed an effect of 50% or more. This is one part of the list.

Molecular target: Nonstructural protein 3 (Zika virus) (UniProt A0A024AXB9)
[1] = PRVABC59, Concentration 50.0 uM, Number of replicates 1.0
[2] = PRVABC59, Concentration 15.0 uM, Number of replicates 1.0
[3] = PRVABC59, Concentration 10.0 uM, Number of replicates 1.0

UniProt A0A024AXB9, sequence (A0A024AXB9 as listed by the source): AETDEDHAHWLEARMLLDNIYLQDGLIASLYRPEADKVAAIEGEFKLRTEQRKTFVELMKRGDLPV

SMILES: Cc1cc(CO)c2cccc(Cc3cccc(NC(=O)CN4CCOCC4)c3)c2n1
- inhibition (PRVABC59, Concentration 49.95 uM, Number of replicates 2.0, Standard deviation 1.6911147851442576 %): -1.23%
- inhibition (PRVABC59, Concentration 99.9 uM, Number of replicates 2.0, Standard deviation 0.24588909748480092 %): 3.02%

SMILES: O=Cc1ccc(N2CCC(C(=O)N3CCN(Cc4ccc(OC(F)(F)F)cc4)CC3)CC2)cc1
- inhibition [1]: 22.1%

SMILES: CN1CCN(CCCNC(=O)c2cc(Cl)ccc2NS(=O)(=O)c2ccc(Oc3ccccc3Cl)cc2)CC1
- inhibition [2]: 8.04%

SMILES: Cc1cc(CO)c2cccc(C[C@H](NC(=O)CN3CCOCC3)C(=O)O)c2n1
- inhibition (PRVABC59, Concentration 49.95 uM, Number of replicates 2.0, Standard deviation 2.0975845871774594 %): -5.11%
- inhibition (PRVABC59, Concentration 99.9 uM, Number of replicates 2.0, Standard deviation 1.4402075468984918 %): -0.323%

SMILES: O=C(NCCc1c[nH]nc1O)[C@]1(c2ccc(F)cc2)CCCNC1
- inhibition (PRVABC59, Concentration 49.5 uM, Number of replicates 2.0, Standard deviation 1.0104116453139207 %): -0.117%
- inhibition (PRVABC59, Concentration 99.01 uM, Number of replicates 2.0, Standard deviation 1.4534382434361832 %): -0.456%
- inhibition (PRVABC59, Concentration 198.0 uM, Number of replicates 2.0, Standard deviation 0.8756900869858181 %): -1.21%

SMILES: Nc1cccc2nccnc12
- inhibition (PRVABC59, Concentration 99.9 uM, Number of replicates 2.0, Standard deviation 9.69887366176999 %): -7.97%

SMILES: O=Cc1ccc(N2CCC(C(=O)Nc3c(F)cc(F)cc3[N+](=O)[O-])CC2)cc1
- inhibition [1]: 25.8%

SMILES: O=C(NCc1ccc(-c2ccccn2)cc1)c1cc(Cl)ccc1NS(=O)(=O)c1ccc(Oc2ccccc2Cl)cc1
- inhibition [2]: 31.7%

SMILES: Cc1cc(CO)c2cccc(Cc3cccc(NC(=O)Cc4cccc(CN)c4)c3)c2n1
- inhibition (PRVABC59, Concentration 49.95 uM, Number of replicates 2.0, Standard deviation 2.5092035223767977 %): 6.18%
- inhibition (PRVABC59, Concentration 99.9 uM, Number of replicates 2.0, Standard deviation 2.4583076624646183 %): 22.9%

SMILES: O=C(c1cc(Cl)ccc1NS(=O)(=O)c1ccc(Oc2ccccc2Cl)cc1)N1CCN(Cc2ccc(OC(F)(F)F)cc2)CC1
- inhibition [2]: 22.8%

SMILES: CCCCCC(=O)N[C@H](C(=O)N1CCCCC1)c1ccc(OCc2ccccc2)cc1
- inhibition (PRVABC59, Concentration 49.5 uM, Number of replicates 2.0, Standard deviation 4.155813079418174 %): -3.48%
- inhibition (PRVABC59, Concentration 99.01 uM, Number of replicates 2.0, Standard deviation 6.423147460184428 %): -4.58%
- inhibition (PRVABC59, Concentration 198.0 uM, Number of replicates 2.0, Standard deviation 4.695102110161803 %): -6.32%

SMILES: CC(C)(C)N(Cc1ccc(Br)cc1)C(=O)c1cc(Cl)ccc1NS(=O)(=O)c1ccc(Oc2ccccc2Cl)cc1
- inhibition [2]: 25.4%

SMILES: C[Si](C)(C)CN(Cc1ccccc1)C(=O)C1CCN(c2ccc(C=O)cc2)CC1
- inhibition [1]: 20.2%

SMILES: Cn1cc(NC(=O)c2ccccc2C(F)(F)F)c(-c2cnn(CCF)c2)n1
- inhibition (PRVABC59, Concentration 49.5 uM, Number of replicates 2.0, Standard deviation 2.4876894106733207 %): -7.64%
- inhibition (PRVABC59, Concentration 99.01 uM, Number of replicates 2.0, Standard deviation 1.4033120271246613 %): -7.93%
- inhibition (PRVABC59, Concentration 198.0 uM, Number of replicates 2.0, Standard deviation 1.5328185030054198 %): -7.48%

SMILES: Cn1c(C(=O)Nc2cc(Cl)cc(C(=O)NC(C)(C)CO)c2)cccc1=O
- inhibition (PRVABC59, Concentration 49.5 uM, Number of replicates 2.0, Standard deviation 1.7250008408103041 %): -1.68%
- inhibition (PRVABC59, Concentration 99.01 uM, Number of replicates 2.0, Standard deviation 1.6306488405382398 %): -2.34%
- inhibition (PRVABC59, Concentration 198.0 uM, Number of replicates 2.0, Standard deviation 2.3177776151355625 %): -1.7%

SMILES: Cn1ccnc1[C@@H](O)C1CCN(C(=O)c2cc(Cl)ccc2NS(=O)(=O)c2ccc(Oc3ccccc3Cl)cc2)CC1
- inhibition [2]: 4.74%

SMILES: Cc1cc(CO)c2cccc(Cc3ccccc3NC(=O)Cc3c[nH]c4ccccc34)c2n1
- inhibition (PRVABC59, Concentration 49.95 uM, Number of replicates 2.0, Standard deviation 1.7355748528989599 %): 0.821%
- inhibition (PRVABC59, Concentration 99.9 uM, Number of replicates 2.0, Standard deviation 0.9670354996725093 %): 10.8%

SMILES: CN(CCCCc1ccccc1)C(=O)C1CCN(c2ccc(C=O)cc2)CC1
- inhibition [1]: 25.1%

SMILES: c1ccc(-n2cc(CN3CCC(c4c[nH]c5cccnc45)CC3)nn2)cc1
- inhibition (PRVABC59, Concentration 49.5 uM, Number of replicates 2.0, Standard deviation 3.7237300369523103 %): -4.19%
- inhibition (PRVABC59, Concentration 99.01 uM, Number of replicates 2.0, Standard deviation 1.918913643921349 %): -5.6%
- inhibition (PRVABC59, Concentration 198.0 uM, Number of replicates 2.0, Standard deviation 1.5169790429854497 %): -5.11%

SMILES: CC(C)C(=O)N1CCN(C(=O)C2CCN(c3ccc(C=O)cc3)CC2)CC1
- inhibition [1]: 19.4%

SMILES: O=C(NCCc1ccccc1C(F)(F)F)c1cc(Cl)ccc1NS(=O)(=O)c1ccc(Oc2ccccc2Cl)cc1
- inhibition [2]: 28.5%

SMILES: O=Cc1ccc(N2CCC(C(=O)N3CCCN(c4ccc(C(F)(F)F)cn4)CC3)CC2)cc1
- inhibition [1]: 19.9%

SMILES: O=Cc1ccc(N2CCC(C(=O)Nc3ccc(OCc4ccccc4)cc3)CC2)cc1
- inhibition [1]: 6.28%

SMILES: O=C(Nc1ccc(Br)cc1O)c1cc(Cl)ccc1NS(=O)(=O)c1ccc(Oc2ccccc2Cl)cc1
- inhibition [2]: 58.9%

SMILES: CCN(CC)CCN(CCN(CC)CC)C(=O)C1CCN(c2ccc(C=O)cc2)CC1
- inhibition [1]: 21.2%

SMILES: Cc1ncoc1CN1CCC(c2c[nH]c3cccnc23)CC1
- inhibition (PRVABC59, Concentration 49.5 uM, Number of replicates 2.0, Standard deviation 1.060972142752499 %): -1.29%
- inhibition (PRVABC59, Concentration 99.01 uM, Number of replicates 2.0, Standard deviation 0.12325997575665598 %): -2.37%
- inhibition (PRVABC59, Concentration 198.0 uM, Number of replicates 2.0, Standard deviation 0.5351668582250209 %): -2.66%

SMILES: Cc1cccc(C)c1OC[C@H](C)NC(=O)c1cc(Cl)ccc1NS(=O)(=O)c1ccc(Oc2ccccc2Cl)cc1
- inhibition [2]: 17.7%

SMILES: O=Cc1ccc(N2CCC(C(=O)NC(c3ccccc3)(c3ccccc3)c3ccccc3)CC2)cc1
- inhibition [3]: 43.6%

SMILES: CC(C)Cn1cccc(C(=O)N[C@H]2CCCNC2)c1=O
- inhibition (PRVABC59, Concentration 49.5 uM, Number of replicates 2.0, Standard deviation 1.6928260604634553 %): -1.16%
- inhibition (PRVABC59, Concentration 99.01 uM, Number of replicates 2.0, Standard deviation 0.8464130526222409 %): 0.121%
- inhibition (PRVABC59, Concentration 198.0 uM, Number of replicates 2.0, Standard deviation 0.8007638220735158 %): -3.94%

SMILES: O=C(c1cc(Cl)ccc1NS(=O)(=O)c1ccc(Oc2ccccc2Cl)cc1)N1CCC(Cc2ccc(Br)cc2)CC1
- inhibition [2]: 2.65%

SMILES: O=C(c1cc(Cl)ccc1NS(=O)(=O)c1ccc(Oc2ccccc2Cl)cc1)N1CCN(c2ncc(C(F)(F)F)cc2Cl)CC1
- inhibition [2]: 13.7%

SMILES: CCn1ncc(N)c1-c1nn(C)cc1NC(=O)c1ccccc1C(F)(F)F
- inhibition (PRVABC59, Concentration 49.5 uM, Number of replicates 2.0, Standard deviation 2.6836674093613992 %): -1.07%
- inhibition (PRVABC59, Concentration 99.01 uM, Number of replicates 2.0, Standard deviation 2.426452526451054 %): -2.49%
- inhibition (PRVABC59, Concentration 198.0 uM, Number of replicates 2.0, Standard deviation 2.919297584597012 %): -5.52%

SMILES: Cc1cc(CO)c2cccc(C[C@H](NC(=O)[C@@H](N)c3ccsc3)C(=O)O)c2n1
- inhibition (PRVABC59, Concentration 49.95 uM, Number of replicates 2.0, Standard deviation 2.4839816681161206 %): -1.02%
- inhibition (PRVABC59, Concentration 99.9 uM, Number of replicates 2.0, Standard deviation 1.7714052375172231 %): 5.18%

SMILES: CCCCN(CCCC)CCCNC(=O)C1CCN(c2ccc(C=O)cc2)CC1
- inhibition [1]: 27.6%

SMILES: CC(C)[C@H](CNC(=O)c1cc(Cl)ccc1NS(=O)(=O)c1ccc(Oc2ccccc2Cl)cc1)N1CCCC1
- inhibition [2]: 25.1%

SMILES: O=C(c1cc(Cl)ccc1NS(=O)(=O)c1ccc(Oc2ccccc2Cl)cc1)N1CCN(c2cccnc2)CC1
- inhibition [2]: 3.92%

SMILES: Cc1cc(CO)c2cccc(NC(=O)NCc3ccc(N)cc3)c2n1
- inhibition (PRVABC59, Concentration 49.95 uM, Number of replicates 2.0, Standard deviation 1.8009998273109058 %): -3.2%
- inhibition (PRVABC59, Concentration 99.9 uM, Number of replicates 2.0, Standard deviation 1.0240979492840148 %): 3.2%

SMILES: CN(C)CC(=O)NC1(C)CCN(C(=O)c2ccc3[nH]ncc3c2)CC1
- inhibition (PRVABC59, Concentration 49.5 uM, Number of replicates 2.0, Standard deviation 0.21263675129625192 %): -2.01%
- inhibition (PRVABC59, Concentration 99.01 uM, Number of replicates 2.0, Standard deviation 1.0055534202329184 %): -2.56%
- inhibition (PRVABC59, Concentration 198.0 uM, Number of replicates 2.0, Standard deviation 0.061605036944009546 %): -2.43%

SMILES: CC(C)CC(=O)N1CCC(NC(=O)C2CCN(c3ccc(C=O)cc3)CC2)CC1
- inhibition [1]: 22.7%

SMILES: CNC(=O)c1cc(Cl)ccc1NS(=O)(=O)c1cccnc1
- inhibition (PRVABC59, Concentration 49.5 uM, Number of replicates 2.0, Standard deviation 4.975502143025385 %): 4.59%
- inhibition (PRVABC59, Concentration 99.01 uM, Number of replicates 2.0, Standard deviation 1.8642280236847668 %): 0.245%
- inhibition (PRVABC59, Concentration 198.0 uM, Number of replicates 2.0, Standard deviation 2.8703194905857754 %): 2.56%

SMILES: COc1ccc(CNC(=O)C2CCN(c3ccc(C=O)cc3)CC2)cc1F
- inhibition [3]: 25.3%
